# Measured values published in PMC4336329 (PLoS ONE, 2015).
# Out of some 310,000 compounds screened, about 14,000 (4.5%) showed an effect of 50% or more. The effect is printed as a negative number. The list shows a part of the results.
# Target: human ether-à-go-go-related gene (hERG) potassium channel (human, UniProt Q12809)
# Test: primary screen, population patch clamp on CHO cells stably expressing hERG
# 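Also: peak tail current of the secondary pulse compared with the same well before compound.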
# human ether-à-go-go-related gene (hERG) potassium channel, sequence (Q12809 whole entry, looked up): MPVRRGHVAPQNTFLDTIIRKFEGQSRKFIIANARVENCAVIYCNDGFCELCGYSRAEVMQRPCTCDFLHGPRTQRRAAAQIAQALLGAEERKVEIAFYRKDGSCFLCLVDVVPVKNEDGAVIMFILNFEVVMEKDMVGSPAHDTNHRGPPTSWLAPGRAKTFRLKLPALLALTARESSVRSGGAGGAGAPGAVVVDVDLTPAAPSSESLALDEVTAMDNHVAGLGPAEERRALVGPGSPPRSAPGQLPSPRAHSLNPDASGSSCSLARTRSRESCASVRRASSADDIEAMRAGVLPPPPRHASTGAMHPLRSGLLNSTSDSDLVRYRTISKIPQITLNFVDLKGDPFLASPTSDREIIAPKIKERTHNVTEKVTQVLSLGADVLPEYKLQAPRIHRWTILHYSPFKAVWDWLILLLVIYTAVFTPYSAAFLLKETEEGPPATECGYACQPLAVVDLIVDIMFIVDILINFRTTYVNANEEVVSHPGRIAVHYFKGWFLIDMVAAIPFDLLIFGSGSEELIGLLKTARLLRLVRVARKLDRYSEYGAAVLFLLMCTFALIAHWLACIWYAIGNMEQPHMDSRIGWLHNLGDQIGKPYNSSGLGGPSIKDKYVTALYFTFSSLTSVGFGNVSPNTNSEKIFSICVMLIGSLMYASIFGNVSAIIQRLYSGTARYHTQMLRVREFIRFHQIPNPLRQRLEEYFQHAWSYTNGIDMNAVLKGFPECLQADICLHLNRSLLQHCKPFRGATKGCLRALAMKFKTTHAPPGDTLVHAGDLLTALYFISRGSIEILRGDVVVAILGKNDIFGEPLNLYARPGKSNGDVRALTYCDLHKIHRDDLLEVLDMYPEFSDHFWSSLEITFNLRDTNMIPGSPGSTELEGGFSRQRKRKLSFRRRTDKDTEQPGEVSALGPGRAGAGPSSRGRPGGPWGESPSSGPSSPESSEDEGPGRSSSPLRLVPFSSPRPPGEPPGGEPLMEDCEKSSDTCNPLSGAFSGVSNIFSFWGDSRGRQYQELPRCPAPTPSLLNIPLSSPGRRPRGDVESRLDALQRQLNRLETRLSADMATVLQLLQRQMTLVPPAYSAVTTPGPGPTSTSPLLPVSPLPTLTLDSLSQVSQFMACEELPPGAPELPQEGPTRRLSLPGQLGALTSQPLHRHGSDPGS
row,Compound,"hERG current change (%, negative = inhibition) at 10uM"
1,CC(=O)NCCn1c(SCc2ccc(C)cc2)nc2ccccc2c1=O,-31.2%
2,Cc1sc2c3ccsc3ccc2[n+]1C.[I-],32.7%
3,CCc1ccccc1NC(=O)C1c2ccccc2Oc2ccccc21,30.7%
4,Cc1nn(S(=O)(=O)c2cccs2)c(C)c1Sc1ccc([N+](=O)[O-])cc1,-5.62%
5,CC1=C(C(=O)Nc2ccccn2)C(c2ccc(Br)cc2)NC(=S)N1 (stereo not drawn),6.41%
6,COc1cccc(NC(=O)CSc2nnc(Cn3c(=O)sc4ccccc43)n2C)c1,-11.2%
7,NS(=O)(=O)c1ccc(NC(=S)NNC(=O)c2ccc(Br)o2)cc1,18.7%
8,COc1ccc(-c2ccc(S(=O)(=O)N3CCCC3)cc2)cc1,22.3%
9,CC1CCCN(C(=O)COC(=O)CNC(=O)c2ccc(Br)cc2)C1 (stereo not drawn),-8.3%
10,CC(=O)O/N=C(/c1nonc1N)N(C)C,12.4%
11,COC(=O)Nc1ccc(OCC(=O)N2CCOCC2)cc1,-5.16%
12,Cc1ccc(N=Cc2c(O)n(-c3ccc(C)cc3)c(=O)[nH]c2=O)cc1,9.48%
13,CN1C2CCC1CC(NS(=O)(=O)c1ccc(C#N)cc1)C2 (stereo not drawn),4.16%
14,O=C(CN1CCN(C(=S)NC2CCCC2)CC1)Nc1ccc(Oc2ccccc2)cc1,-25%
15,O=C1CC(c2cccc(Br)c2)C2=C(CCCC2=O)N1 (stereo not drawn),2.43%
16,CCCCN(C(=O)c1ccc(N(C)S(=O)(=O)c2ccc(C)cc2)cc1)c1c(N)n(CCC)c(=O)[nH]c1=O,16.2%
17,CC(CCc1ccccc1)NCC(O)c1ccc(O)c(C(N)=O)c1.Cl (stereo not drawn),-30.6%
18,Nc1ccc(C(=O)OCC(=O)N2CCc3ccccc3C2)cc1[N+](=O)[O-],-21.1%
19,CN1CCN(c2ccccc2NC(=O)COc2ccc(Br)cc2)CC1,-58%

row,Compound,"hERG current change (%, negative = inhibition) at 10uM"
1,CCn1c(SCC(=O)Nc2oc(-c3ccccc3)c(-c3ccccc3)c2C#N)nnc1-c1ccco1,-30.8%
2,CCOC(=O)C1=C(C)NC(=O)NC1/C(C)=C/c1ccccc1 (stereo not drawn),-5.3%
3,Cc1ccc(O)c(NC(=S)NC(=O)CC(C)C)c1,1.63%
4,Cc1cccc(-c2nc3c(c(SCC(=O)N4CCCC4)n2)COC(C)(C)C3)c1,-2.05%
5,O=C(c1ccc(COc2ccc(Cl)cc2Cl)o1)N1CCCC1,-43.1%
6,Cc1occc1C(=O)N1CCN(C(=O)C2CCCO2)CC1 (stereo not drawn),-12.2%
7,COc1ccc(-c2ccc(/C=C3/C(=N)N4C=CSC4=NC3=O)o2)c([N+](=O)[O-])c1,-9.17%
8,CC(c1ccccc1)C1CC(=O)N(c2ccc(C(=O)O)cc2)C1=O (stereo not drawn),15.2%
9,CCn1cc(C(=O)N2CCN(c3ccccc3)CC2)c(=O)c2cc(S(=O)(=O)N3CCOCC3)ccc21,23%
10,COC(=O)CCNS(=O)(=O)c1ccc2nsnc2c1,8.7%
11,CC(C)c1ccccc1NC(=O)COC(=O)COc1ccccc1[N+](=O)[O-],28.5%
12,CC(C)CC(c1nnnn1C1CCCC1)N1CCN(C(=O)c2ccco2)CC1.Cl (stereo not drawn),-33.9%
13,CCN(C(=O)c1ccc2c(SCC(=O)O)c3c(nc2c1)CCC3)c1cc(Cl)ccc1OC,20.8%
14,CCc1ccccc1NCc1cc(=O)oc2cc(C)ccc12,26.9%
15,Cc1nc(SCC(=O)NNC(=O)c2cccs2)[nH]c(=O)c1C,16.9%
16,O=C(COC(=O)c1cccc(Br)c1)NCCC1=CCCCC1,16.6%
17,CNc1ccc(Cl)cc1C(N)=O,26.1%
18,CC(=O)c1ccc(NC(=O)c2cc(C)nc3ccccc23)cc1,16.5%
19,COc1ccc(NC(=O)c2ccccc2NC(=O)CSc2ccc(Cl)cc2)cc1,3.21%

row,Compound,"hERG current change (%, negative = inhibition) at 10uM"
1,COC(=O)c1nnn(-c2ccsc2C(=O)OC)c1C(=O)OC,9.52%
2,Cc1ccc(/C=C/c2nc3sc(C(=O)O)c(C)c3c(=O)[nH]2)cc1[N+](=O)[O-],19%
3,COc1ccc(C(=O)CC(=O)C(=O)Nc2cc(OC)ccc2OC)cc1,2.5%
4,COc1cc2nc(SCc3ccc(F)cc3)n(Cc3cccs3)c(=N)c2cc1OC,0.564%
5,Cc1nc(SCc2ccc(F)cc2)c2oc3ccccc3c2n1,2.68%
6,CC(=O)Nc1ccc(NC(=O)C(OC(=O)c2ccccc2)C(OC(=O)c2ccccc2)C(=O)O)cc1 (stereo not drawn),4.27%
7,O=C(NCCc1ccc2c(c1)OCCO2)c1ccccn1,9.78%
8,O=C(Nc1ccc(Cc2ccncc2)cc1)c1cccc([N+](=O)[O-])c1,13.6%
9,CCOC(=O)CCCN1CC(O)=C(c2nc3ccccc3s2)C1=N,-7.37%
10,COc1ccccc1-c1sc2ccccc2c1-c1ccc2c(c1)OCO2,4.64%
11,Cc1cccc(C)c1NC(=S)NCCc1ccccn1,6.34%
12,O=C(NNc1cc(Cl)ccc1Cl)c1cccnc1Cl,22.9%
13,CC(=O)c1cccc(NC(=O)C(C)OC(=O)c2cccc(S(=O)(=O)N3CCN(C)CC3)c2)c1 (stereo not drawn),-21.5%
14,COc1ccccc1NC(=O)C1=C(C)Nc2nc(-c3cccs3)nn2C1c1cccnc1 (stereo not drawn),-6.58%
15,S=C(NCc1ccccc1)Nc1ccncc1,-4.59%
16,CCN(c1ccc(OC)cc1)S(=O)(=O)c1ccc2c(c1)CCN2C(=O)CCC(=O)O,3.55%
17,COc1cc(OC)nc(NC(=O)CN2CCN(c3ccc(F)cc3)CC2)n1,-20.1%
18,Cl.Cn1sccc1=O,19.2%
19,CCCCCc1nnc(NC(=O)OCCC)s1,-26%
